In PubChem BioAssay AID588855 (National Center for Advancing Translational Sciences (NCATS), 2011):
The whole screen tested about 410,000 compounds, of which about 5,000 (1.2%) were called active. Inconclusive means that the source gave no clear call. Such entries were picked first, then a sample of the others. Calls follow the shape of the dose curve; as a rule, active = well fitted inhibition curve with a large enough effect; inconclusive = small, poorly fitted or top-dose-only effect; inactive = no such curve, though single readings can be large or run the other way. Potencies of inconclusive entries are doubtful fits and often do not repeat.

assay: qHTS for Inhibitors of TGF-b; details: HepG2 CAGA-GFP TGF-b/SMAD3 reporter, GFP fluorescence, 18 h, TGF-beta stimulated, 500 pg/mL final; series mostly up to 46.1 µM; also: nearly all actives have a fitted effect of over 65% in size
Outline: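 Inhibition of TGF-beta-driven CAGA-GFP reporter expression in HEPG2 cells is measured by cellular GFP fluorescence after 18 h stimulation with 500 pg/mL recombinant TGF-beta in 1% FBS medium at 37 degrees C.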
Potency is read from the fitted curve at half-maximal effect; tags tell the direction and shape of the fitted curve.

Row | Structure (SMILES) | Potency
1 | CCOc1cc(N2CCOCC2)c(OCC)cc1NC(=O)c1ccc(F)c(S(=O)(=O)N2CCOCC2)c1 | inactive
2 | CN(C)c1ccc(C(=O)N/N=C/c2cc(Br)cc(Br)c2O)cc1 | inconclusive: 2.51 µM [inhibitor, full curve, poor fit]
3 | O=C(CN1CCN(S(=O)(=O)c2ccc(Cl)s2)CC1)NCc1ccc(Cl)cc1 | inconclusive: 11.2 µM [inhibitor, partial curve]
4 | Cc1c(C(=O)N2CCCCCC2)c(S(=O)(=O)Nc2ccc(OC(F)(F)F)cc2)c(C)n1C | inconclusive: 15.8 µM [inhibitor, single point]
5 | S=C(NCc1ccc2c(c1)OCO2)Nc1ccc2nsnc2c1 | inconclusive: 25.1 µM [inhibitor, single point]
6 | CCCCn1c(N)c(N(CCC(C)C)C(=O)c2ccc([N+](=O)[O-])s2)c(=O)[nH]c1=O | inconclusive: 35.5 µM [inhibitor, single point]
7 | CCc1noc(C)c1C(=O)Nc1ccc(C)c(S(=O)(=O)N2CCCCCC2)c1 | inconclusive: 25.1 µM [inhibitor, single point]
8 | CC(C)SC1=NC(C)(C)C=C(/C=C/c2c(Cl)cccc2Cl)N1 | inconclusive: 35.5 µM [inhibitor, partial curve, poor fit]
9 | CCOc1ccc(S(=O)(=O)N2CCCC(C(=O)N3CCN(c4ccccc4)CC3)C2)cc1 (configuration not stated) | inconclusive: 22.4 µM [inhibitor, single point]
10 | c1ccc2c(c1)ncc1cccn12 | inactive
11 | CCN1C(=O)[C@H]2[C@@H](c3ccc(-c4ccc5c(c4)OCO5)c(OC)c3)N[C@@](C)(C(=O)OC)[C@H]2C1=O | inactive
12 | C[C@H]1CN([C@@H](C)CO)C(=O)c2cc(C#CC3CCCC3)cnc2O[C@H]1CN(C)C(=O)Cc1ccccn1 | inactive
13 | CCOC(=O)C(C)Oc1cccc2c(=O)n(CC(=O)NCc3ccc4c(c3)OCO4)ccc12 (configuration not stated) | inconclusive: 25.1 µM [inhibitor, single point]
14 | CCOC(=O)N1CCN(C(=O)Cn2nc(-c3ccc(Cl)cc3)ccc2=O)CC1 | inconclusive: 5.62 µM [inhibitor, single point]
15 | COCCNC(=O)CN(C(=O)Cn1nnc2ccccc21)c1ccc(C)c(F)c1 | inactive
16 | CCOc1ccc(CCNC(=O)CCCc2nnc3n(CCCOC)c(=O)c4sccc4n23)cc1 | inactive
17 | COc1ccccc1C1CC(c2ccc(F)cc2)Nc2ncnn21 (configuration not stated) | inconclusive: 1.12 µM [inhibitor, partial curve, poor fit]
18 | CCC(=O)Nc1ccc(C(=O)N/N=C/c2cc(Br)c(OC)cc2OC)cc1 | inconclusive: 3.55 µM [inhibitor, single point]
19 | C#CCNC(=O)C1=C[C@H](c2coc3ccccc3c2=O)C[C@H](OCCCCO)O1 | inconclusive: 10 µM [inhibitor, partial curve, poor fit]
20 | O=C(NCc1cccnc1)c1c(F)c(F)c(F)c(F)c1F | inconclusive: 15.8 µM [inhibitor, single point]
21 | Cc1c(Cl)cccc1NC(=O)N1CCN(C(=O)c2ccco2)CC1 | inactive

Row | Structure (SMILES) | Potency
22 | Cc1ccc(Cl)cc1N1CCN(S(=O)(=O)c2c(C)[nH]c(=O)[nH]c2=O)CC1 | inconclusive: 3.16 µM [inhibitor, partial curve, poor fit]
23 | Cc1ccc(C)c(N2CCN(C(=O)CN3CCSc4ccccc43)CC2)c1 | inconclusive: 22.4 µM [inhibitor, single point]
24 | Cc1cccc(-c2nc(SCc3cc(=O)c4cccc(F)c4[nH]3)n[nH]2)c1 | inconclusive: 31.6 µM [inhibitor, single point]
25 | Cc1ccc(C(=O)/C=C/c2ccc3ncccc3c2)cc1 | inconclusive: 22.4 µM [inhibitor, single point]
26 | Cc1ccnc(SCC(=O)N2CCN(c3cccc(Cl)c3)CC2)n1 | inactive
27 | COc1ccc(/C=N/NC(=O)c2cccnc2)c2ccccc12 | inconclusive: 15.8 µM [inhibitor, single point]
28 | C=CCN1CN(Cc2ccco2)CNC1=S | inactive
29 | O=c1[nH]c(=S)n(C2CCCCC2)c(O)c1C=NCCN1CCOCC1 | inactive
30 | CCCCCn1c(SCC2CCCO2)nc2cc(C(=O)N3CCC(C(N)=O)CC3)ccc2c1=O (configuration not stated) | inconclusive: 11.2 µM [inhibitor, partial curve, poor fit]
31 | NC(=S)NN=C1C2CC3CC(C2)CC1C3 | inconclusive: 35.5 µM [inhibitor, single point]
32 | Cc1cccc2sc(N(Cc3cccnc3)C(=O)CCS(=O)(=O)c3ccccc3)nc12 | active: 11.2 µM
33 | COc1ccc2c(c1)CCCC(Br)C2=O (configuration not stated) | inconclusive: 35.5 µM [inhibitor, single point]
34 | COc1ccc(-c2cc(C(F)(F)F)nc(S(C)(=O)=O)n2)cc1OC | inconclusive: 22.4 µM [inhibitor, single point]
35 | CCCN1C(=S)SC(C)(C)C1/[N+]([O-])=C/c1ccc(S(=O)(=O)NC)cc1 (configuration not stated) | inconclusive: 28.2 µM [inhibitor, partial curve, poor fit]
36 | O=C(C1CCCCC1)N1CCC(O)(c2ccc(Cl)cc2)CC1 | inconclusive: 10 µM [inhibitor, partial curve, poor fit]
37 | CCOCCCNC(=O)/C(C#N)=C/c1cc(C)c(O)c(C)c1 | inactive
38 | COCCN(C(=O)CNC(=O)c1ccco1)C(C(=O)NC1CCCC1)c1ccccc1F (configuration not stated) | inconclusive: 0.251 µM [inhibitor, full curve, poor fit]
39 | Fc1ccc(F)c(Nc2c3c(nc4ccc(Cl)cc24)CCC3)c1 | inconclusive: 20 µM [inhibitor, partial curve, poor fit]
40 | CCCC(CCC)=NNC(=O)CN(Cc1ccccc1)S(=O)(=O)c1ccccc1 | inconclusive: 1.12 µM [inhibitor, full curve]
41 | Cc1ccc(S(=O)(=O)NN=C2CCCc3ccccc32)cc1 | inactive
42 | CCOc1ccc(-c2nnn(CC(=O)c3ccc4c(c3)OCCO4)n2)cc1OCC | inconclusive: 35.5 µM [inhibitor, single point]
